Measurements taken from patent EP1914237B1 (priority 1999, dated 2001).

Experiments:
HSV-1 = type: cell-based; conditions: Table 7; CC50/EC50
HCMV [1] = conditions: Table 2; CC50/EC50
HCMV [2] = assay: microbe, parasite or virus in culture; conditions: Human betaherpesvirus 5, MRC5, 120 h, read-out: HCMV EC50, µM

Row | Structure (SMILES) | Selectivity Index (HSV-1) | Selectivity Index (HCMV [1]) | EC50 (HCMV [2])
1 | Nc1ccn(C[C@@H](CO)OCP(=O)(O)O)c(=O)n1 [CDV, cidofovir, reference compound] | > 800 | >2174 | 0.45 ± 0.09 µM
2 | CCCCCCCCCCCCCCCCOCCCOP(=O)(O)COCCn1cnc2c(N)ncnc21 [HDP-Adefovir] | – | – | 0.01 µM
3 | Nc1ccn(C[C@H]2COP(=O)(O)CO2)c(=O)n1 [cCDV, cyclic cidofovir, reference compound] | >475 | >2128 | 0.47 ± 0.13 µM
